# Measured values from PubChem BioAssay (NCI).
# Several values for one entry are separate records, joined by “and”; a condition that tells them apart may be missing. Identical values can stand only once.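 Each compound was tested at five concentrations against cells in 96-well plates for 48 hours. GI50 marks 50% less growth. Definition used: TGI = concentration required for complete inhibition of growth.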
# Tested on: NCI-H322M lung
# Test: growth of human tumour cells (NCI), 48 h
Structure (SMILES),GI50,TGI
CCc1ccc(C2=C/C(=C/c3ccc(Cl)cc3)C(=O)N2CCc2ccc(S(N)(=O)=O)cc2)cc1,2.83 µM,9.63 µM
CCCCOC(=O)CN1C(=O)c2ccccc2C1=O,–,> 100 µM
CC1=CC2=C(OCO1)C(=O)c1ccccc1C2=O,–,28.1 µM
C[C@]12CC[C@@H]3c4ccc(OC(=O)c5ccccc5)cc4CC[C@H]3[C@@H]1CCC2OC(=O)c1cccc2c(=O)c3ccccc3[nH]c12 (stereo not given in full),–,47.3 µM
COc1ccc(-c2oc3c(CC(=O)O)cccc3c(=O)c2OC)cc1,–,> 100 µM
COC1=CC(=O)c2ccc(C(C)C)cc2C1(C)C1=NC(C)(C)CO1 (stereo not given),–,> 100 µM
O=C(O)C(Cc1cccs1)NC(=O)C(F)(F)F (stereo not given),–,> 100 µM
C[C@H]1CCC/C=C/[C@@H]2C[C@H](O)C[C@H]2[C@H](O)[C@H](S(=O)c2ccc(O)cc2)CC(=O)O1 (stereo not given in full),0.0393 µM,2.24 µM
CC(C)(Cl)CCC1=C(Cl)C(=O)c2ccccc2C1=O,12.6 µM,28.6 µM
O=C(O)/C(Cl)=C(\Cl)Nc1cccc(C(F)(F)F)c1,–,31.2 µM
CN(C)c1ccc(N=Nc2cccc3ccoc23)cc1,–,> 100 µM
CC(=O)OCc1nc(C#N)c(N)o1,–,> 100 µM
NC(=O)/N=C(\N)NC(=O)c1ccccc1,–,> 100 µM
C=C1C(=O)O[C@@H]2[C@H]1CC[C@H](C)[C@]1(O)CCC(=O)[C@@]21C,–,> 10 µM
C#C[C@@]1(O)[C@@H](CO)O[C@@H](n2cc(Cl)c3c(N)ncnc32)[C@@H]1O,0.262 µM,3.13 µM
CCN(Cc1ccc(F)cc1)c1ccc(CO)c(Cl)c1,13.4 µM,> 48 µM
CCCCCCCCCOC(=S)NC,–,> 100 µM
Cc1c(O)c(OC2OC(CO)C(O)C(O)C2O)cc2c1CC[C@@H]1C2(C)C(=O)C[C@]2(C)[C@@H]([C@@](C)(O)C(O)/C=C/C(C)(C)O)[C@H](O)C[C@@]12C (stereo not given in full),–,> 100 µM
CCN1C(C)=NC2C(=O)c3ccccc3C(=O)C21 (stereo not given),–,> 100 µM
CCCCCCCC1c2cc3[nH]c(cc4nc(cc5[nH]c(cc(n2)[C@@]1(C)CC(=O)N(C)C)c(C)c5CCC(=O)O)C(CCC(=O)O)=C4C)cc3C (stereo not given in full),–,> 100 µM
CC1(C)CC23C(=O)N(c4ccccc4)C(=Nc4ccccc4)NC2=CC(C#N)=C(C#N)C3O1 (stereo not given),–,> 100 µM
CC[O-].CC[O-].[O-]c1ccccc1C=Nc1ccccc1.[O-]c1ccccc1C=Nc1ccccc1.[Ti+4],81 µM,> 100 µM
CC(=O)O[C@H](C[C@H](C(C)C)N(C)C(=O)[C@@H](NC(=O)[C@H]1CCCCN1C)C(C)C)c1nc(C(=O)N[C@@H](Cc2ccccc2)C[C@H](C)C(=O)O)c(C)s1,< 0.0025 µM,> 25 µM
CON(C)C(=O)C(Cc1ccccc1)NC(=O)OC(C)(C)C (stereo not given),–,> 100 µM
Cc1cc(C)c2c(=O)cc(-c3ccc(Cl)cc3)[nH]c2n1,–,> 100 µM

Structure (SMILES),GI50,TGI
O=C(O)C1C2C=CC(O2)C1C(=O)Nc1ccccc1 (stereo not given),–,> 100 µM
Cc1cc(NC(=O)c2ccc(NS(=O)(=O)CCO)cc2N2CCC3(CC2)CC3)nc(N2CCC(F)(F)CC2)n1,13.6 µM,26.8 µM
O=c1ncc(-c2ccc(C(F)(F)F)cc2)c(NC2CCCCCC2)[nH]1,28.2 µM,79.1 µM
CC(=O)OCC1OC(n2c(C)c(N=Nc3ccc(C)cc3)c(C)c(C#N)c2=S)C(OC(C)=O)C(OC(C)=O)C1OC(C)=O (stereo not given),–,> 100 µM
CCOC(=O)[C@H](CSSc1ncnc2cc[nH]c12)NC(=O)[C@@H](C)c1ccc2cc(OC)ccc2c1,1.81 µM,> 100 µM
C/C(CC(=O)CCCC(=O)Nc1ccc(Cl)cc1Cl)=N/NC(=O)CC#N,–,> 100 µM
COc1ccccc1C1C2=C(COC2=O)OC(C)(C)Oc2cc3c(cc21)OCO3 (stereo not given),–,> 100 µM
CC(=O)CC(=O)N(CCN(C(=O)CC(C)=O)c1ccccc1)c1ccccc1,–,> 100 µM
O=C1C=C(Nc2ccccc2)c2ncccc2C1=O,1.6 µM,2.98 µM
Cc1cc(N(CCOS(C)(=O)=O)CCOS(C)(=O)=O)ccc1C=Nc1ccc(-c2csc(-c3ccccc3)n2)c(Cl)c1,–,41.9 µM
CS(=O)(=O)c1ccc(N/N=C/c2c(-c3ccc(S(C)(=O)=O)cc3)[nH]c3ccc(F)cc23)cc1,2.34 µM,> 50 µM
O=c1[nH]cnc2c(C3OC(CO)C(O)C3O)[nH]nc12 (stereo not given),–,> 100 µM
O=C1O/C(=C\c2ccc(O)c(Br)c2)C(c2ccc(O)cc2)=C1Cl,–,> 100 µM
O=C(O)c1ccc(Nc2ccnc3cc(Cl)ccc23)cc1O,–,> 100 µM
CC(=O)[CH-]C(=O)c1ccccc1.CC(=O)[CH-]C(=O)c1ccccc1.O=C([O-])C[O-].O=C([O-])C[O-].[Ti+4],> 100 µM,> 100 µM
c1ccc(COCC23CCN(Cc4ccccc4)C(CC(OCc4ccccc4)C2)S3)cc1 (stereo not given),–,> 100 µM
O=C1c2ccccc2C(=O)c2c(OCC3CO3)ccc(OCC3CO3)c21 (stereo not given),–,25.5 µM
COc1ccc(C(=O)/C=C/c2cc3ccccc3[nH]c2=O)cc1,32.3 µM,> 86.3 µM
O=C(OCc1ccccc1)N1CCNCCNCC1,–,> 100 µM
COC(=O)c1cc(NC2OCC(OC(C)=O)C(OC(C)=O)C2OC(C)=O)nc(SC)c1C(=O)OC (stereo not given),–,> 100 µM
CS(=O)(=O)c1nc(N)nc2nc[nH]c12,–,> 100 µM
Cc1ccc(S(=O)(=O)Nn2c(-c3ccccc3)c(C#N)c(-c3ccc(Cl)cc3)c(C#N)c2=O)cc1,–,82.5 µM
O=S(=O)(/C=C/C=C/S(=O)(=O)c1ccccc1)c1ccccc1,–,28.7 µM
O=c1c2cccnc2[nH]c2ccc3scnc3c12,–,> 10 µM
CCOC(=O)c1ccc2c(c1)nc1n2C(c2c(F)cccc2F)SC1 (stereo not given),–,> 100 µM

Structure (SMILES),GI50,TGI
O=C1c2ccccc2C(=O)N1/N=C\c1ccc(Br)cc1,> 100 µM,> 100 µM
N#Cc1c(C#N)c(-c2cccc([N+](=O)[O-])c2)n(-c2ccccc2)c1N,–,> 100 µM
CCOC(=O)CSc1nc2ccccc2c(=O)n1N,–,> 100 µM
N=c1ccn2c(n1)OC1C(OP(=O)(O)O)C(CO)OC12 (stereo not given),–,> 100 µM
CN(C)CC/C=C1\c2ccccc2Sc2ccc(Cl)cc21,7.81 µM,20.9 µM and 24.2 µM
CC(=O)O[C@H]1CC[C@H]2[C@@H]3CCc4cc(O)c(I)cc4[C@H]3CC[C@]12C,–,29.5 µM
COc1cccc(/C=C(/C(=O)O)c2cc(OC)c(OC)c(OC)c2)c1,–,> 100 µM
CCCCCCCCCCCCCOC(=O)c1c(C)[nH]c(/C=C2\N=C(c3ccc[nH]3)C=C2OC)c1C,1.36 µM,> 100 µM
C[C@]12CCC3c4ccc(OC(=O)c5ccccc5)cc4CC[C@H]3C1CC[C@@H]2OC(=O)C12OC1CCC2=O (stereo not given in full),–,13.7 µM
CC(C)C1C(=O)N2CCCC2C2(O)OC(NC(=O)C3C=C4c5cccc6[nH]cc(c56)CC4N(C)C3)(C(C)C)C(=O)N12 (stereo not given),–,> 100 µM
CC1OC(OC2C(OC(=O)[C@]34CCC(C)(C)C[C@H]3C3=CC[C@@H]5[C@@]6(C)CC[C@H](OC7OC(C(=O)O)C(O)C(O)C7O)C(C)(C)[C@@H]6CC[C@@]5(C)[C@]3(C)CC4)OCC(O)C2O)C(O)C(O)C1OC1OCC(O)C(O)C1O (stereo not given in full),–,> 100 µM and 90.2 µM
Cc1cc(Cl)ccc1Nc1sc(C(=O)c2cc3cc(Cl)ccc3o2)c(N)c1C#N,–,> 100 µM
O=[N+]([O-])C(/C(Cl)=C(/Cl)N1CCCCC1)=C1\NCCO1,–,> 100 µM
Cc1cc(S(=O)(=O)Nc2nc(N)n(-c3cnc4ccccc4n3)n2)c(S)cc1Cl,–,> 100 µM
Cn1c(=O)n(-c2c3ccccc3c(Cl)c3ccccc23)n(C(C)(C)C)c1=O,–,> 100 µM
CC1(C)SC2C(C(=O)O)N=C(Cc3ccccc3)N2C1C(=O)O (stereo not given),–,56.8 µM
CC1CCCOc2ccc(cc2)C=Nc2ccc(cc2)CCc2ccc(cc2)N=Cc2ccc(cc2)OCCC1 (stereo not given),–,> 100 µM
CCOC(=O)CSc1nc(-c2ccc(OC)cc2)c(C#N)c(=O)[nH]1,–,> 100 µM
COC(=O)C1([C@@H]2C[C@@H](O)[C@]3(C)CC/C=C(\C)CCC[C@H](C)[C@H](O)[C@@H]2O3)CC1,–,> 100 µM
CCC1(O)CC(OC2CC(N(C)C)C(OC3CC(O)C(OC4OC(C)C(=O)C=C4N)C(C)O3)C(C)O2)c2c(O)c3c(c(O)c2C1C(=O)OC)C(=O)c1cccc(O)c1C3=O (stereo not given),–,0.592 µM
COc1ccc(-c2coc3ncnc(N)c23)cc1,> 25 µM,> 25 µM
Cc1cc(C)c(C(=O)O)c(N)c1O,–,> 100 µM
CCCCCCN(CCCCCC)C(=N)c1ccnc2ccccc12,7.75 µM,21.5 µM
CCCCCCCCCCCCCCCCC1=CC(=O)C=C(OC)C1=O,–,> 100 µM
c1ccc(N/N=C2\CC(c3ccccc3)Oc3ccccc32)cc1 (stereo not given),–,> 100 µM

Structure (SMILES),GI50,TGI
COC(=O)c1cccc(NC(=O)Nc2ccc3oc(=O)c4ccccc4c3c2)c1,> 100 µM,> 100 µM
Cc1[nH]c2c(C)ccc(C)c2c1CC(=O)O,–,> 100 µM
CCc1cc(-c2nsc(=O)o2)c(S(=O)(=O)CC)s1,–,> 100 µM
CSc1ccc(-c2cn3ccsc3n2)c(O)c1,–,> 100 µM
COC(=O)c1ccccc1C1CN=NC12Cc1c(C)cc(C)cc1C2=O (stereo not given),–,> 100 µM
c1cncc(C2c3[nH]c4ccccc4c3CCN2CCCN2CCCCC2)c1 (stereo not given),–,> 100 µM
COC(=O)[C@@H]1O[C@]12C(CO[Si](C)(C)C(C)(C)C)OC(n1ccc(=O)[nH]c1=O)C2O[Si](C)(C)C(C)(C)C (stereo not given in full),–,> 100 µM
CCOC(=O)C12CCCC1(O)N(NC(=O)c1cccc(Cl)c1)C(C)=C2C(=O)OC (stereo not given),–,> 100 µM
C1COC2SC3=C(SC(=C4SC5=C(SCCS5)S4)S3)SC2O1 (stereo not given),–,> 100 µM
CCCCCCCCN(CCCCCCCC)C(=N)c1ccnc2ccccc12,1.31 µM,2.85 µM
Nc1ncc(-c2cnn(C3CCNCC3)c2)cc1-c1nc2ccccc2o1,0.907 µM,8.37 µM
O=C(NNC(=S)Nc1ccccc1)C12CC3CC(CC(C3)C1)C2,–,> 100 µM
CC(=O)C1(c2ccccc2)CCN(Cn2sc3nc(C)cc(C)c3c2=O)CC1,–,> 100 µM
COC1Cc2c(C)c(OC(C)=O)c3cccnc3c2O1 (stereo not given),–,> 100 µM
CCCCCCCC[N+](C)(C)Cc1ccc(C[N+](C)(C)CCCCCCCC)cc1,–,> 100 µM
CC1=CC(=O)C(C)(C2=NC(C)(C)CO2)c2ccccc21 (stereo not given),–,> 100 µM
COC(=O)c1cc(Br)c(C(=O)C(Cl)(Cl)Cl)[nH]1,–,> 100 µM
CCC[CH2][Sn]1([CH2]CCC)[O]C(c2ccccn2)S(=O)(=O)[O]1 (stereo not given),14.7 µM,27.9 µM
COc1cc(C(=O)C/C(CCC(=O)Nc2ccccc2[N+](=O)[O-])=N\NC(=O)C(N)=O)ccc1O,–,> 100 µM
O=C1CC2[C@@H](N3CCCC3)CCC(N1Cc1ccccc1)C2(O)O (stereo not given in full),–,> 100 µM
CN1C(=O)n2c(nc3ccccc32)C(N=[N+]=[N-])(N=[N+]=[N-])C1=O (stereo not given),–,> 100 µM
CCOC(=O)C1C(=O)CC(C)(O)C(C(=O)OCC)C1c1ccc(N(C)C)cc1 (stereo not given),–,> 100 µM
